Experimental data as given in the supplement of paper PMC8728848.
The other results are listed elsewhere or left out.

Key:
Experiment in all cases: glycan array binding signal (z-score within array); higher = stronger binding
Settings in all cases: glycan notation: IUPAC condensed, linker removed
[1] = molecular target: Fuc(a1-2)[GalNAc(b1-3)]Gal
Procedure, shortened: (§1)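 From the Consortium for Functional Glycomics database, 3228 arrays were curated, keeping only those whose protein sequence was available. Binding is given as a within-array Z-score averaged across arrays sharing a protein sequence and across linkers. Negative Z-scores can be read as non-binding.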

Fuc(a1-3)GlcNAc = molecular target: Fuc(a1-3)GlcNAc
Procedure, shortened: as §1

[2] = molecular target: Fuc(a1-3)[Gal(b1-4)]Glc6S
Procedure, shortened: as §1

[3] = molecular target: Fuc(a1-3)[Gal(b1-4)]GlcNAc
Procedure, shortened: as §1

[4] = molecular target: Fuc(a1-3)[Gal(b1-4)]GlcNAc(b1-2)Man
Procedure, shortened: as §1

[5] = molecular target: Fuc(a1-3)[Gal(b1-4)]GlcNAc(b1-2)Man(a1-3)[Fuc(a1-3)[Gal(b1-4)]GlcNAc(b1-2)Man(a1-6)]Man(b1-4)GlcNAc(b1-4)GlcNAc
Procedure, shortened: as §1

[6] = molecular target: Fuc(a1-3)[Gal(b1-4)]GlcNAc(b1-2)Man(a1-3)[Fuc(a1-3)[Gal(b1-4)]GlcNAc(b1-2)Man(a1-6)]Man(b1-4)GlcNAc(b1-4)[Fuc(a1-6)]GlcNAc
Procedure, shortened: as §1

[7] = molecular target: Fuc(a1-3)[Gal(b1-4)]GlcNAc(b1-3)Gal(b1-3)[Fuc(a1-4)]GlcNAc
Procedure, shortened: as §1

[8] = molecular target: Fuc(a1-3)[Gal(b1-4)]GlcNAc(b1-3)Gal(b1-4)[Fuc(a1-3)]GlcNAc
Procedure, shortened: as §1

[9] = molecular target: Fuc(a1-3)[Gal(b1-4)]GlcNAc(b1-3)Gal(b1-4)[Fuc(a1-3)]GlcNAc(b1-3)Gal(b1-4)[Fuc(a1-3)]GlcNAc
Procedure, shortened: as §1

[10] = molecular target: Fuc(a1-3)[Gal(b1-4)]GlcNAc(b1-3)GalNAc
Procedure, shortened: as §1

[11] = molecular target: Fuc(a1-3)[Gal(b1-4)]GlcNAc(b1-6)GalNAc
Procedure, shortened: as §1

[12] = molecular target: Fuc(a1-3)[Gal(b1-4)]GlcNAc(b1-6)[Gal(b1-3)GlcNAc(b1-3)]Gal(b1-4)Glc
Procedure, shortened: as §1

[13] = molecular target: Fuc(a1-3)[Gal(b1-4)]GlcNAc6S
Procedure, shortened: as §1

[14] = molecular target: Fuc(a1-3)[Gal3S(b1-4)]Glc
Procedure, shortened: as §1

[15] = molecular target: Fuc(a1-3)[Gal3S(b1-4)]GlcNAc
Procedure, shortened: as §1

[16] = molecular target: Fuc(a1-3)[Gal3S(b1-4)]GlcNAc6S
Procedure, shortened: as §1

[17] = molecular target: Fuc(a1-3)[GalNAc(b1-4)]GlcNAc
Procedure, shortened: as §1

[18] = molecular target: Fuc(a1-3)[GalNAc(b1-4)]GlcNAc6S
Procedure, shortened: as §1

Fuc(a1-4)GlcNAc = molecular target: Fuc(a1-4)GlcNAc
Procedure, shortened: as §1

Fuc(b1-3)GlcNAc = molecular target: Fuc(b1-3)GlcNAc
Procedure, shortened: as §1

Gal(a1-2)Gal = molecular target: Gal(a1-2)Gal
Procedure, shortened: as §1

Gal(a1-3)Gal = molecular target: Gal(a1-3)Gal
Procedure, shortened: as §1

Gal(a1-3)Gal(b1-3)GlcNAc = molecular target: Gal(a1-3)Gal(b1-3)GlcNAc
Procedure, shortened: as §1

[19] = molecular target: Gal(a1-3)Gal(b1-3)GlcNAc(b1-2)Man
Procedure, shortened: as §1

[20] = molecular target: Gal(a1-3)Gal(b1-3)GlcNAc(b1-2)Man(a1-3)[Gal(a1-3)Gal(b1-3)GlcNAc(b1-2)Man(a1-6)]Man(b1-4)GlcNAc(b1-4)GlcNAc
Procedure, shortened: as §1

[21] = molecular target: Gal(a1-3)Gal(b1-3)GlcNAc(b1-3)GalNAc
Procedure, shortened: as §1

[22] = molecular target: Gal(a1-3)Gal(b1-3)GlcNAc(b1-6)GalNAc
Procedure, shortened: as §1

[23] = molecular target: Gal(a1-3)Gal(b1-3)[Fuc(a1-4)]GlcNAc(b1-2)Man(a1-3)[Gal(a1-3)Gal(b1-3)[Fuc(a1-4)]GlcNAc(b1-2)Man(a1-6)]Man(b1-4)GlcNAc(b1-4)GlcNAc
Procedure, shortened: as §1

Gal(a1-3)Gal(b1-4)Glc = molecular target: Gal(a1-3)Gal(b1-4)Glc
Procedure, shortened: as §1

B1: Cp ZmpB (Clostridium perfringens), Q0TR08 (protein)
chain: MNKRKIAAIILATMITNLSATTIDVLAQELNTKNNSKVEVSHDDESHQARVSKFDLYNSDKLDAYNQEFQVSRSNIKSINNNGGKYNSSTIDKAIDGNLETHWETGKPNDANFTNEVVVTFNEITNIDRIVYSARRDSARGKGFAKEFEIYASLKDEGDDFNLVSSGEYTESTRDLVEIKFNPTDFKRLKFKFKKADQNWASAAEFMFYKEDKLNEKFNGLFTDSSMNKVSEEFNTLEKLNAFENELKDHPIYDLYKEGLNNARAILTETSENPTKATLGQITYNLNDDYNNQYRMPYKNIKAIKNNGRHYAAQNIEKAIDNDVNTYWETGTLNSSSFNNEVEVEFNDLVTLDRIVYGSRQSDLKGFAEEVYIYASRTSKGDTYKLVATGAHEATKGLVEAKFEPTEFKRVKFKFKKSKQNSATLNELMFYKPDEVYSSIPKLFTDGTMSELSEEFNSLEKINAFKEKAKNHPLYNDFNETIELAESLISNPRKEDVLELEMRGDSISEAKKRKVWNFQDWQITGLSARAGDKITVYVDVAEGDPTPTLLYKQSLTQHGGATSFQLKPGKNEITIPEINYESNGIPKDVIQGGDLFFTNYKSDSQKRAPKVRIEGASKYPVFILGKSDENEVMKELEAYVEKIKAEPKTTPNIFAVSSNKSLEFVQATYALDWYKKNNKTPKYTAEQWDQYIADAMGFWGFDNSKDVNSDFNFRIMPMVKNLSGGAFMNAGNGVIGIRPGNQDAILAANKGWGVAHELGHNFDTGGRTIVEVTNNMMPLFFESKYKTKTRITDQNIWENNTYPKVGLDDYSNNELYNKADSTHLAQLAPLWQLYLYDNTFYGKFERQFRERDFGNKNREDIYKSWVVAASDAMELDLTEFFARHGIRVDDKVKEDLAKYPKPDKKIYYLNDLAMNYKGDGFTENAKVSVSTSGSNGNIKLSFSVDDENKDNILGYEIRRDGKYVGFTSNDSFVDTKSNLDEDGVYVVTPYDRKLNTLNPIEVNALQPTLSVNPVITLALGEEFNEEEYIVAKDIKGNSLSESVKVKSSNVNTSKVGEYEVLYSLEDSKGNEYTKTSKVNVVSRKEYMSDLTPKQSSNGWGTVRKDKSISGGVIGLTRDGDFVDYNKGLGLHSNAEYVYDLEGKDYDYFESYVGVDKAMSSRPASSVIFKVLVDGEEKFNSGVMRSTTPQKYVKVDVKNAKELKLIVNDAGDGDSSDHASFGDAKLATLSSKPIIKGENLAYSMDEKVDLMKGITATDIEDGNITSKVQIKSSDFVEGKSGIFTVVYSVTDSDGLTSECSRTIAVTDKETQLSDLNWKSATIGSGSVRKDRAVSGNQIRLLNEDNSVETFAKGIGTHSYSEIVYNSEGYDIFDTWVGIDRHVADKKVSSVKFKVYVDGELKAETDVMRIDTPKKRLVVDVRNSKEIKLVVDVADNGNNWDHADWADAKFRNLAEYDASELNKAIEEAKKLDLNNYTEESSEALKNAISKGEEALLSKDKETINSALEELNKEMNSLVKVDLNAVINIPDKYLLKSIQNQLNKTGDITLGDMYSLTTLTLSGVEDLTGLENAKNLETLNMDYNEVKDLRPLSKLKKLNTLNAQEQFIAAGELKPSNGKVIGDSKVYNREGKNVAKTIRVVDKNGNTILEQDAKDEFTINTKDLSSGLYGVHVLFEDEGFSGVMFYLFNV
glycan array binding signal (z-score) [1]: -0.499
glycan array binding signal (z-score) (Fuc(a1-3)GlcNAc): 0.464
glycan array binding signal (z-score) [2]: 0.539
glycan array binding signal (z-score) [3]: 0.121
glycan array binding signal (z-score) [4]: 0.205
glycan array binding signal (z-score) [5]: 0.308
glycan array binding signal (z-score) [6]: -0.107
glycan array binding signal (z-score) [7]: -0.231
glycan array binding signal (z-score) [8]: -0.294
glycan array binding signal (z-score) [9]: -0.233
glycan array binding signal (z-score) [10]: -0.12
glycan array binding signal (z-score) [11]: -0.181
glycan array binding signal (z-score) [12]: -0.29
glycan array binding signal (z-score) [13]: 0.068
glycan array binding signal (z-score) [14]: -0.001
glycan array binding signal (z-score) [15]: -0.069
glycan array binding signal (z-score) [16]: -0.404
glycan array binding signal (z-score) [17]: 0.02
glycan array binding signal (z-score) [18]: -0.027
glycan array binding signal (z-score) (Fuc(a1-4)GlcNAc): -0.31
glycan array binding signal (z-score) (Fuc(b1-3)GlcNAc): -0.093
glycan array binding signal (z-score) (Gal(a1-2)Gal): -0.48
glycan array binding signal (z-score) (Gal(a1-3)Gal): -0.22
glycan array binding signal (z-score) (Gal(a1-3)Gal(b1-3)GlcNAc): 0.288
glycan array binding signal (z-score) [19]: 0.226
glycan array binding signal (z-score) [20]: 0.14
glycan array binding signal (z-score) [21]: -0.001
glycan array binding signal (z-score) [22]: -0.156
glycan array binding signal (z-score) [23]: -0.141
glycan array binding signal (z-score) (Gal(a1-3)Gal(b1-4)Glc): -0.084
